Source: patent US10758569B2, “Heteroaryl disulfide compounds as allosteric effectors for increasing the oxygen-binding affinity of hemoglobin” (The General Hospital Corporation, priority 2014, dated 2020)

Columns and labels:
hemoglobin = biological target: T1, hemoglobin (Homo sapiens, UniProt P68871+P69905); experiment: Oxygen dissociation curve (ODC) of purified hemoglobin, HEMOX analyzer; type: biochemical; conditions: for P50 of purified Hb / % met Hb: hemoglobin 20 μM; for P50 of purified Hb: added compound 120 μM, no unit in table (text gives P50 in Torr); for % met Hb / n50: compound 120 μM; for n50: purified Hb 20 μM
T1 construct: from tissue; host or cells: outdated donated human red blood cells (hemolysate supernatant, dialysed against DPBS)
Protocol: The ODC of hemoglobin with Compound 1 was measured to determine the increase of oxygen binding affinity of hemoglobin (FIG. 2A). […] Incubation of hemoglobin with Compound 1 reduced the Bohr effect (the increase of the P50 of hemoglobin induced by decreasing the pH).

whole blood = experiment: ODC (P50) of whole blood; conditions: hemoglobin 20 μM, compound 120 μM; no unit in table
Solubility (Table 3) = type: physicochemical; conditions: solvents (concentration where printed)

Solubility (Solubility (Table 3)): DMSO, PG (0.5M) PEG-400 (0.5M)
Structure (SMILES): c1nn[nH]c1SSc1cnn[nH]1 [Compound 9, 1,2-di(1H-1,2,3-triazol-5-yl)disulfane]
P50 of purified Hb (hemoglobin): 5.87
% met Hb (hemoglobin): 4.2%
n50 (hemoglobin): 2.85
P50 of whole blood (whole blood): 6.6

Solubility (Solubility (Table 3)): DMSO
Structure (SMILES): Nc1nnc(SSc2nnc(N)s2)s1 [Compound 6, 5,5′-disulfanediylbis(1,3,4-thiadiazol-2-amine)]
P50 of purified Hb (hemoglobin): 5.35
% met Hb (hemoglobin): 4.1%
n50 (hemoglobin): 2.71
P50 of whole blood (whole blood): 13.79

Solubility (Solubility (Table 3)): DMSO
Structure (SMILES): c1ccc(-n2nnnc2SSc2nnnn2-c2ccccc2)cc1 [Compound 10, 1,2-bis(1-phenyl-1H-tetrazol-5-yl)disulfane]
P50 of purified Hb (hemoglobin): 16.85
n50 (hemoglobin): 2.81

Solubility (Solubility (Table 3)): DMSO
Structure (SMILES): c1nnc(SSc2nnc[nH]2)[nH]1 [Compound 8, 1,2-di(4H-1,2,4-triazol-3-yl)disulfane]
P50 of purified Hb (hemoglobin): 4.54
% met Hb (hemoglobin): 5.3%
n50 (hemoglobin): 2.85
P50 of whole blood (whole blood): 5

The remaining lines, values behind:

Structure (SMILES): Oc1cnc(SSc2ncc(O)[nH]2)[nH]1 [Compound 7, 2,2′-disulfanediylbis(1H-imidazol-5-ol)]
P50 of purified Hb (hemoglobin): 16.2

Structure (SMILES): c1coc(-c2nnc(SSc3nnc(-c4ccco4)[nH]3)[nH]2)c1 [Compound 4, 1,2-bis(5-(furan-2-yl)-4H-1,2,4-triazol-3-yl)disulfane]
% met Hb (hemoglobin): 3.6%
n50 (hemoglobin): 2.71
P50 of whole blood (whole blood): 9.75

Structure (SMILES): c1csc(SSc2nccs2)n1 [Compound 5, 1,2-di(thiazol-2-yl)disulfane]
P50 of purified Hb (hemoglobin): 7.88
P50 of whole blood (whole blood): 13.95

One block for each molecule: values may come before it.
